# Measured values as given in the supplement of paper PMC8728848.
# The other results are listed elsewhere or left out.
# B1: SSR1 (Sclerotium rolfsii), A0A0M3KL30 (protein)
# chain: TYKITVRVYQTNPDAFFHPVEKTVWKYANGGTWTITDDQHVLTMGGSGTSGTLRFHADNGESFTATFGVHNYKRWCDIVTNLAADETGMVINQQYYSQKNREEARERQLSNYQVKNAKGRNFQIVYTEAEGNDLHANLIIG
# What was measured:
# Assay in all cases: glycan array binding signal (z-score within array); higher = stronger binding
# Details in all cases: glycan notation: IUPAC condensed, linker removed
# [1] = target: Fuc(a1-2)Gal(b1-4)GlcNAc(b1-3)Gal(b1-4)GlcNAc(b1-2)Man(a1-3)[Fuc(a1-2)Gal(b1-4)GlcNAc(b1-3)Gal(b1-4)GlcNAc(b1-2)Man(a1-6)]Man(b1-4)GlcNAc(b1-4)GlcNAc
# Summary of the method: (§1)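 The binding signal is a Z-score computed within each array. Data were drawn from 3228 arrays in the Consortium for Functional Glycomics database, restricted to those with a known protein sequence. Scores were averaged over arrays of the same protein sequence at different concentrations or buffers, and over linkers, and negative values can be taken as non-binding.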
# [2] = target: Fuc(a1-2)Gal(b1-4)GlcNAc(b1-3)Gal(b1-4)GlcNAc(b1-3)Gal(b1-4)GlcNAc
# Summary of the method: as §1
# [3] = target: Fuc(a1-2)Gal(b1-4)GlcNAc(b1-3)GalNAc
# Summary of the method: as §1
# [4] = target: Fuc(a1-2)Gal(b1-4)GlcNAc(b1-3)[Fuc(a1-2)Gal(b1-4)GlcNAc(b1-6)]GalNAc
# Summary of the method: as §1
# [5] = target: Fuc(a1-2)Gal(b1-4)GlcNAc(b1-3)[Fuc(a1-3)[Gal(b1-4)]GlcNAc(b1-6)]Gal(b1-4)Glc
# Summary of the method: as §1
# [6] = target: Fuc(a1-2)Gal(b1-4)GlcNAc(b1-6)GalNAc
# Summary of the method: as §1
# [7] = target: Fuc(a1-2)Gal(b1-4)GlcNAc6S
# Summary of the method: as §1
# [8] = target: Fuc(a1-2)Gal(b1-4)[Fuc(a1-3)]GlcNAc
# Summary of the method: as §1
# [9] = target: Fuc(a1-2)Gal(b1-4)[Fuc(a1-3)]GlcNAc(b1-2)Man(a1-3)[Fuc(a1-2)Gal(b1-4)[Fuc(a1-3)]GlcNAc(b1-2)Man(a1-6)]Man(b1-4)GlcNAc(b1-4)[Fuc(a1-6)]GlcNAc
# Summary of the method: as §1
# [10] = target: Fuc(a1-2)Gal(b1-4)[Fuc(a1-3)]GlcNAc(b1-2)[Fuc(a1-2)Gal(b1-4)[Fuc(a1-3)]GlcNAc(b1-4)]Man(a1-3)[Fuc(a1-2)Gal(b1-4)[Fuc(a1-3)]GlcNAc(b1-2)Man(a1-6)]Man(b1-4)GlcNAc(b1-4)GlcNAc
# Summary of the method: as §1
# [11] = target: Fuc(a1-2)Gal(b1-4)[Fuc(a1-3)]GlcNAc(b1-3)Gal(b1-4)[Fuc(a1-3)]GlcNAc
# Summary of the method: as §1
# [12] = target: Fuc(a1-2)Gal(b1-4)[Fuc(a1-3)]GlcNAc(b1-3)Gal(b1-4)[Fuc(a1-3)]GlcNAc(b1-3)Gal(b1-4)[Fuc(a1-3)]GlcNAc
# Summary of the method: as §1
# [13] = target: Fuc(a1-2)Gal(b1-4)[Fuc(a1-3)]GlcNAc(b1-3)GalNAc
# Summary of the method: as §1
# [14] = target: Fuc(a1-2)Gal(b1-4)[Fuc(a1-3)]GlcNAc(b1-3)[Neu5Ac(a2-6)Gal(b1-4)GlcNAc(b1-6)]Gal(b1-4)Glc
# Summary of the method: as §1
# [15] = target: Fuc(a1-2)Gal3S(b1-4)GlcNAc
# Summary of the method: as §1
# [16] = target: Fuc(a1-2)Gal6S(b1-3)GlcNAc
# Summary of the method: as §1
# [17] = target: Fuc(a1-2)Gal6S(b1-3)GlcNAc6S
# Summary of the method: as §1
# [18] = target: Fuc(a1-2)Gal6S(b1-4)Glc
# Summary of the method: as §1
# [19] = target: Fuc(a1-2)Gal6S(b1-4)Glc6S
# Summary of the method: as §1
# [20] = target: Fuc(a1-2)[Gal(a1-3)]Gal
# Summary of the method: as §1
# [21] = target: Fuc(a1-2)[Gal(a1-3)]Gal(b1-3)GalNAc
# Summary of the method: as §1
# [22] = target: Fuc(a1-2)[Gal(a1-3)]Gal(b1-3)GalNAc(b1-3)Gal(a1-4)Gal(b1-4)Glc
# Summary of the method: as §1
binder,measurement,setting,value
B1,glycan array binding signal (z-score),[1],-0.288
same,glycan array binding signal (z-score),[2],-0.303
same,glycan array binding signal (z-score),[3],0.054
same,glycan array binding signal (z-score),[4],-0.309
same,glycan array binding signal (z-score),[5],-0.328
same,glycan array binding signal (z-score),[6],0.086
same,glycan array binding signal (z-score),[7],-0.375
same,glycan array binding signal (z-score),[8],-0.313
same,glycan array binding signal (z-score),[9],-0.3
same,glycan array binding signal (z-score),[10],-0.309
same,glycan array binding signal (z-score),[11],-0.306
same,glycan array binding signal (z-score),[12],-0.324
same,glycan array binding signal (z-score),[13],-0.326
same,glycan array binding signal (z-score),[14],-0.337
same,glycan array binding signal (z-score),[15],-0.327
same,glycan array binding signal (z-score),[16],-0.343
same,glycan array binding signal (z-score),[17],-0.331
same,glycan array binding signal (z-score),[18],-0.345
same,glycan array binding signal (z-score),[19],-0.353
same,glycan array binding signal (z-score),[20],-0.331
same,glycan array binding signal (z-score),[21],-0.327
same,glycan array binding signal (z-score),[22],-0.331
